# Reference: the supplement of paper PMC8728848
# This is one part of the list.
# B1: B1257 (Bifidobacterium sp) (protein)
# chain: MKKSIRLVAAIAALAMTAGISACGSSTNGNQAKSDVTAQDVETALTDTSKNVELTVWAYSAKQMEPTVKAFEKKYPHIKINFVNTGAAGDHFTKFQNVVQAQKDIPDVVQMGANKFQQFAVSGALLNFANDSIEKAWSKLYTKTAWAQVHYAGGLYGAPQDATPLANYVRKDILDEHNLQVPESWEDIYNEGIKLHKEDSNKYMGILGSDISFFTNLYRSVGARLWKVNSVDDVELTMNSGKAKEFTEFLQKCLKDGVLEGGTVFTDEFNRSINDGRYATFINENWMGNTYKEQNPSLKGKMVVAAPPSWKGQPYQSSSVGSMMSVSAACPKEKQAAALAFINWLDSDKDAIQSWQDTNNGNFFMAASVYQDDENQRNKKETDGYYANDDVNAVYFDSMDKVNTDWEYLPFMSQVEVVFNDVIVPQMNENGDLVGAMAKAQQELKTYAKDNGFKVTTDAD
# Legend:
# Assay in all cases: glycan array binding signal (z-score within array); higher = stronger binding
# Conditions in all cases: glycan notation: IUPAC condensed, linker removed
# [1] = target: Gal(a1-3)[Gal(a1-4)]Gal(b1-4)GlcNAc
# Outline: (§1)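 The binding signal is a Z-score computed within each array and averaged over linkers. Arrays of the same protein sequence at different concentrations or buffers were also averaged together. Data originate from 3228 arrays in the Consortium for Functional Glycomics database, kept only where the protein sequence was available.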
# [2] = target: Gal(a1-4)Gal(b1-3)GlcNAc(b1-2)Man(a1-3)[Gal(a1-4)Gal(b1-3)GlcNAc(b1-2)Man(a1-6)]Man(b1-4)GlcNAc(b1-4)GlcNAc
# Outline: as §1
# Gal(a1-4)Gal(b1-4)Glc = target: Gal(a1-4)Gal(b1-4)Glc
# Outline: as §1
# Gal(a1-4)Gal(b1-4)GlcNAc = target: Gal(a1-4)Gal(b1-4)GlcNAc
# Outline: as §1
# [3] = target: Gal(a1-4)Gal(b1-4)GlcNAc(b1-2)Man(a1-3)[Gal(a1-4)Gal(b1-4)GlcNAc(b1-2)Man(a1-6)]Man(b1-4)GlcNAc(b1-4)GlcNAc
# Outline: as §1
# [4] = target: Gal(a1-4)Gal(b1-4)GlcNAc(b1-3)Gal(b1-4)Glc
# Outline: as §1
# Gal(a1-4)GlcNAc = target: Gal(a1-4)GlcNAc
# Outline: as §1
# Gal(a1-6)Glc = target: Gal(a1-6)Glc
# Outline: as §1
# Gal(b1-2)Gal = target: Gal(b1-2)Gal
# Outline: as §1
# Gal(b1-3)Gal = target: Gal(b1-3)Gal
# Outline: as §1
# Gal(b1-3)Gal(b1-4)GlcNAc = target: Gal(b1-3)Gal(b1-4)GlcNAc
# Outline: as §1
# Gal(b1-3)GalNAc = target: Gal(b1-3)GalNAc
# Outline: as §1
# [5] = target: Gal(b1-3)GalNAc(a1-3)[Fuc(a1-2)]Gal(b1-4)Glc
# Outline: as §1
# [6] = target: Gal(b1-3)GalNAc(a1-3)[Fuc(a1-2)]Gal(b1-4)GlcNAc
# Outline: as §1
# Gal(b1-3)GalNAc(b1-3)Gal = target: Gal(b1-3)GalNAc(b1-3)Gal
# Outline: as §1
# [7] = target: Gal(b1-3)GalNAc(b1-3)Gal(a1-4)Gal(b1-4)Glc
# Outline: as §1
# [8] = target: Gal(b1-3)GalNAc(b1-4)Gal(b1-4)Glc
# Outline: as §1
# [9] = target: Gal(b1-3)GalNAc(b1-4)[Neu5Ac(a2-3)]Gal(b1-4)Glc
# Outline: as §1
# Gal(b1-3)GlcNAc = target: Gal(b1-3)GlcNAc
# Outline: as §1
# [10] = target: Gal(b1-3)GlcNAc(a1-3)Gal(b1-4)GlcNAc
# Outline: as §1
# [11] = target: Gal(b1-3)GlcNAc(a1-6)Gal(b1-4)GlcNAc
# Outline: as §1
# Gal(b1-3)GlcNAc(b1-2)Man = target: Gal(b1-3)GlcNAc(b1-2)Man
# Outline: as §1
# [12] = target: Gal(b1-3)GlcNAc(b1-2)Man(a1-3)[Gal(b1-3)GlcNAc(b1-2)Man(a1-6)]Man(b1-4)GlcNAc(b1-4)GlcNAc
# Outline: as §1
# [13] = target: Gal(b1-3)GlcNAc(b1-2)Man(a1-3)[Gal(b1-3)GlcNAc(b1-2)Man(a1-6)]Man(b1-4)GlcNAc(b1-4)[Fuc(a1-6)]GlcNAc
# Outline: as §1
# [14] = target: Gal(b1-3)GlcNAc(b1-2)Man(a1-3)[GlcNAc(b1-4)][Gal(b1-3)GlcNAc(b1-2)Man(a1-6)]Man(b1-4)GlcNAc(b1-4)GlcNAc
# Outline: as §1
# [15] = target: Gal(b1-3)GlcNAc(b1-2)[Gal(b1-3)GlcNAc(b1-6)]Man(a1-6)[Gal(b1-3)GlcNAc(b1-2)Man(a1-3)]Man(b1-4)GlcNAc(b1-4)GlcNAc
# Outline: as §1
# [16] = target: Gal(b1-3)GlcNAc(b1-3)Gal(b1-3)GlcNAc
# Outline: as §1
# [17] = target: Gal(b1-3)GlcNAc(b1-3)Gal(b1-4)Glc
# Outline: as §1
# [18] = target: Gal(b1-3)GlcNAc(b1-3)Gal(b1-4)GlcNAc
# Outline: as §1
# [19] = target: Gal(b1-3)GlcNAc(b1-3)Gal(b1-4)GlcNAc(b1-2)Man(a1-3)[Gal(b1-3)GlcNAc(b1-3)Gal(b1-4)GlcNAc(b1-2)Man(a1-6)]Man(b1-4)GlcNAc(b1-4)GlcNAc
# Outline: as §1
# [20] = target: Gal(b1-3)GlcNAc(b1-3)Gal(b1-4)GlcNAc(b1-2)[Gal(b1-3)GlcNAc(b1-3)Gal(b1-4)GlcNAc(b1-6)]Man(a1-6)[Gal(b1-3)GlcNAc(b1-3)Gal(b1-4)GlcNAc(b1-2)Man(a1-3)]Man(b1-4)GlcNAc(b1-4)[Fuc(a1-6)]GlcNAc
# Outline: as §1
# [21] = target: Gal(b1-3)GlcNAc(b1-3)Gal(b1-4)GlcNAc(b1-3)Gal(b1-4)GlcNAc(b1-2)[Gal(b1-3)GlcNAc(b1-3)Gal(b1-4)GlcNAc(b1-3)Gal(b1-4)GlcNAc(b1-6)]Man(a1-6)[Gal(b1-3)GlcNAc(b1-3)Gal(b1-4)GlcNAc(b1-3)Gal(b1-4)GlcNAc(b1-2)Man(a1-3)]Man(b1-4)GlcNAc(b1-4)[Fuc(a1-6)]GlcNAc
# Outline: as §1
# [22] = target: Gal(b1-3)GlcNAc(b1-3)Gal(b1-4)GlcNAc(b1-6)[Gal(b1-3)GlcNAc(b1-3)]Gal(b1-4)Glc
# Outline: as §1
# [23] = target: Gal(b1-3)GlcNAc(b1-3)Gal(b1-4)[Fuc(a1-3)]GlcNAc
# Outline: as §1
# [24] = target: Gal(b1-3)GlcNAc(b1-3)Gal(b1-4)[Fuc(a1-3)]GlcNAc(b1-6)[Gal(b1-3)GlcNAc(b1-3)]Gal(b1-4)Glc
# Outline: as §1
# [25] = target: Gal(b1-3)GlcNAc(b1-3)GalNAc
# Outline: as §1
# [26] = target: Gal(b1-3)GlcNAc(b1-6)Gal(b1-4)GlcNAc
# Outline: as §1
# [27] = target: Gal(b1-3)GlcNAc(b1-6)GalNAc
# Outline: as §1
binder,measurement,setting,value
B1,glycan array binding signal (z-score),[1],-0.051
same,glycan array binding signal (z-score),[2],0.186
same,glycan array binding signal (z-score),Gal(a1-4)Gal(b1-4)Glc,-0.023
same,glycan array binding signal (z-score),Gal(a1-4)Gal(b1-4)GlcNAc,0.007
same,glycan array binding signal (z-score),[3],0.48
same,glycan array binding signal (z-score),[4],-0.183
same,glycan array binding signal (z-score),Gal(a1-4)GlcNAc,-0.131
same,glycan array binding signal (z-score),Gal(a1-6)Glc,-0.196
same,glycan array binding signal (z-score),Gal(b1-2)Gal,-0.153
same,glycan array binding signal (z-score),Gal(b1-3)Gal,-0.09
same,glycan array binding signal (z-score),Gal(b1-3)Gal(b1-4)GlcNAc,0.064
same,glycan array binding signal (z-score),Gal(b1-3)GalNAc,0.28
same,glycan array binding signal (z-score),[5],0.314
same,glycan array binding signal (z-score),[6],-0.014
same,glycan array binding signal (z-score),Gal(b1-3)GalNAc(b1-3)Gal,-0.134
same,glycan array binding signal (z-score),[7],-0.109
same,glycan array binding signal (z-score),[8],-0.085
same,glycan array binding signal (z-score),[9],-0.22
same,glycan array binding signal (z-score),Gal(b1-3)GlcNAc,0.009
same,glycan array binding signal (z-score),[10],-0.124
same,glycan array binding signal (z-score),[11],-0.081
same,glycan array binding signal (z-score),Gal(b1-3)GlcNAc(b1-2)Man,0.018
same,glycan array binding signal (z-score),[12],-0.095
same,glycan array binding signal (z-score),[13],-0.121
same,glycan array binding signal (z-score),[14],0.324
same,glycan array binding signal (z-score),[15],0.083
same,glycan array binding signal (z-score),[16],-0.077
same,glycan array binding signal (z-score),[17],-0.067
same,glycan array binding signal (z-score),[18],-0.015
same,glycan array binding signal (z-score),[19],-0.023
same,glycan array binding signal (z-score),[20],0.076
same,glycan array binding signal (z-score),[21],0.212
same,glycan array binding signal (z-score),[22],-0.062
same,glycan array binding signal (z-score),[23],-0.13
same,glycan array binding signal (z-score),[24],-0.021
same,glycan array binding signal (z-score),[25],-0.129
same,glycan array binding signal (z-score),[26],-0.056
same,glycan array binding signal (z-score),[27],0.012
